Two compounds from patent EP0081756A1, “New compounds with antiinflammatory and antitussive activity, process for their preparation and relative pharmaceutical compositions” (MEDEA RESEARCH S.r.l., priority 1981, dated 1983) can be followed below.

This experiment has as its system cough with an aerosol administration of citric acid. In words: Antitussive activity, cough induced by citric acid aerosol (method of Boura). The note with it: rabbit, 50 mg/kg i.p. immediately before citric acid aerosol, cough strokes counted for 10 minutes.

Take `COc1ccc2c3c1O[C@H]1[C@@H](O)C=C[C@H]4[C@@H](C2)N(C)CC[C@@]341` [CODEINE, codeine, reference compound]: the “% INHIBITION OF COUGH STROKES IN COMPARISON WITH BASAL VALUES” is given as 79.5%. Regarding `Cc1cccnc1NC(=O)C1(c2ccccc2)CCCC1` [MR 549, 2-[(1-phenyl)cyclopentyl-carbonyl]-amino-3-methylpyridine], the “% INHIBITION OF COUGH STROKES IN COMPARISON WITH BASAL VALUES” amounted to 63.5%.
